Measurements as given in article PMC4336329 (PLoS ONE, 2015).
Among all 310,000 compounds or so, about 14,000 (4.5%) showed an effect of 50% or more. The effect is printed as a negative number. Some of the results follow.
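Note: peak tail current of the secondary pulse compared with the same well before compound.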

What follows are compounds tested against human ether-à-go-go-related gene (hERG) potassium channel (human, UniProt Q12809) (assay: primary screen, population patch clamp on CHO cells stably expressing hERG).
human ether-à-go-go-related gene (hERG) potassium channel, sequence (Q12809 whole entry, looked up): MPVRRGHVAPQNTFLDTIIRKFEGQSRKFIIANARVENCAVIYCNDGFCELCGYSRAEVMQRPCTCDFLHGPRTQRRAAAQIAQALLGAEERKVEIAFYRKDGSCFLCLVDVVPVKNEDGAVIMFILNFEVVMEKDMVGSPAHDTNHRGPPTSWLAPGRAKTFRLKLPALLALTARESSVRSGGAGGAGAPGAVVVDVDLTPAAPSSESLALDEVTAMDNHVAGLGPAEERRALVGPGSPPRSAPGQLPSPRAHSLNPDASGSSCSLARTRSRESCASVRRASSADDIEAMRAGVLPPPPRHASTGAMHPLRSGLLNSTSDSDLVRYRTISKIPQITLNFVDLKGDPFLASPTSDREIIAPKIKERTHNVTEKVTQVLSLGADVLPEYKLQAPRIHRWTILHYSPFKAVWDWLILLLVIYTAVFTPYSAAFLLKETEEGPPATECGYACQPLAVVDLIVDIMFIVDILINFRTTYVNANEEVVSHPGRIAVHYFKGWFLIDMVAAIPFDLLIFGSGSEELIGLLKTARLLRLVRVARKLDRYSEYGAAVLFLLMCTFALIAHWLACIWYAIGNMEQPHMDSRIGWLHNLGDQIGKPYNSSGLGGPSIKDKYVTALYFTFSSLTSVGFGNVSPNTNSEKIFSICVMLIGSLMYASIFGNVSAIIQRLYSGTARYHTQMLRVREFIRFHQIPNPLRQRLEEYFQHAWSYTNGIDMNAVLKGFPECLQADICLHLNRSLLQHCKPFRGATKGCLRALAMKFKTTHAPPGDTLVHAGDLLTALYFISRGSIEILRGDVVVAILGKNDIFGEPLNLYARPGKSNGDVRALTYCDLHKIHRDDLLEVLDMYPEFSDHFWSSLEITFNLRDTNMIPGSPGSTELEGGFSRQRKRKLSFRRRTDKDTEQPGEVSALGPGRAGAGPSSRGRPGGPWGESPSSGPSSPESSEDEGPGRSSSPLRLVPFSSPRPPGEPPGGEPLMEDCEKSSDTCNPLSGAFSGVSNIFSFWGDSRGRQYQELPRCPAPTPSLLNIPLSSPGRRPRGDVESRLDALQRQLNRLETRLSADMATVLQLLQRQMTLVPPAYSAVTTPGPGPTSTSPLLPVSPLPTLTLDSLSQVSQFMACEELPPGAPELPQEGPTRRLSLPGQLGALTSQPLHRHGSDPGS
With CCN(CC)S(=O)(=O)c1cc(NC(=O)COC(=O)c2ccc(NC(=O)CC#N)cc2)ccc1C the “hERG current change (%, negative = inhibition) at 10uM” value was 7.1%.
With COc1ccccc1/C=C/C1C(C(=O)OCC(C)C)=C(C)N=C2SCCC(=O)N21 (centres unmarked) the “hERG current change (%, negative = inhibition) at 10uM” value was 1.42%.
In the case of CN(C)C(CNC(=O)Cc1c(Cl)cccc1Cl)c1ccccc1 (centres unmarked), the “hERG current change (%, negative = inhibition) at 10uM” value is reported as 0.397%.
With COc1ccc(OC)c(C(=O)c2ccc(C(=O)Nc3ccc(NC(C)=O)cc3)cc2)c1 the “hERG current change (%, negative = inhibition) at 10uM” value was 14.2%.
In the case of COc1ccc(C(C(=O)NC2CCCCC2)N(C(=O)c2sc(C)nc2C)c2ccc(OC)cc2)cc1 (centres unmarked), the “hERG current change (%, negative = inhibition) at 10uM” value is reported as 6.85%.
Cc1nc2oc(C(=O)c3ccc(Br)cc3)c(N)c2c2c1COC(C)(C)C2 was tested, and the “hERG current change (%, negative = inhibition) at 10uM” value was 11.5%.
For COc1ccc(NS(=O)(=O)c2ccc(OC)c(NC(=O)CCC3CCCCC3)c2)cc1, the “hERG current change (%, negative = inhibition) at 10uM” value was 13.3%.
In the case of CCCCCn1c(CCCNC(=O)CC)nc2ccccc21, the “hERG current change (%, negative = inhibition) at 10uM” value is reported as -65.9%.
In the case of COc1cc(NS(=O)(=O)c2ccc(NC(=O)c3ccc(S(=O)(=O)N4CCCCC4)cc3)cc2)ncn1, the “hERG current change (%, negative = inhibition) at 10uM” value is reported as 25.9%.
O=C(CCCCCN1C(=O)CCC1=O)Nc1ncn[nH]1 was tested, and the “hERG current change (%, negative = inhibition) at 10uM” value was 11%.
For COc1cccc(Cn2c(Oc3ccccc3)nc3c2c(=O)n(C)c(=O)n3C)c1, the “hERG current change (%, negative = inhibition) at 10uM” value was -14.3%.
For Cc1nnc(-c2cnn(-c3ccccc3)c2N)n1Cc1cccc(C(F)(F)F)c1, the “hERG current change (%, negative = inhibition) at 10uM” value was -18.8%.
In the case of COc1ccc2nc(C)cc(NCc3cccc(C(F)(F)F)c3)c2c1, the “hERG current change (%, negative = inhibition) at 10uM” value is reported as -31.7%.
In the case of CS(=O)(=O)Nc1ccc(-c2cn3cccnc3n2)cc1, the “hERG current change (%, negative = inhibition) at 10uM” value is reported as 7.9%.
For COc1ccc(C(=O)Nc2ccc(S(=O)(=O)Nc3nccc(C)n3)cc2)cc1, the “hERG current change (%, negative = inhibition) at 10uM” value was 22.9%.
In the case of CN(C)c1ccc(N=Nc2nc3ccccc3n2C)cc1, the “hERG current change (%, negative = inhibition) at 10uM” value is reported as 2.62%.
In the case of Br.O=C(CN1CCCCC1)c1cccc(Br)c1, the “hERG current change (%, negative = inhibition) at 10uM” value is reported as 7.58%.
For O=c1oc(Nc2ccccc2F)nc2ccccc12, the “hERG current change (%, negative = inhibition) at 10uM” value was 23.7%.
For CCOC(=O)N1CCN(C(=O)CSCc2ccc(Cl)cc2)CC1, the “hERG current change (%, negative = inhibition) at 10uM” value was -28.2%.
With O=C1COc2ccc(C(=O)CSc3nc4ccccc4c(=O)n3-c3ccc(Cl)c(Cl)c3)cc2N1 the “hERG current change (%, negative = inhibition) at 10uM” value was 20.4%.
Nc1nnc(SCC(=O)OCC(=O)Nc2ccc(Br)cc2F)s1 was tested, and the “hERG current change (%, negative = inhibition) at 10uM” value was 9.72%.
In the case of Cc1cccc(NC(=S)NC2CC3C=CC2C3)c1 (centres unmarked), the “hERG current change (%, negative = inhibition) at 10uM” value is reported as -1.72%.
For O=C(O)/C=C/c1cn(-c2ccccc2)nc1-c1ccc(-c2ccc([N+](=O)[O-])cc2)o1, the “hERG current change (%, negative = inhibition) at 10uM” value was 4.4%.
CCN1/C(=N\N)c2cccc3cccc1c23 was tested, and the “hERG current change (%, negative = inhibition) at 10uM” value was 9.75%.
O=C(Nc1nnc(C2CC2)s1)c1cccs1 was tested, and the “hERG current change (%, negative = inhibition) at 10uM” value was 21.5%.
For CSCC[C@H](NC(=O)C1CCN(S(=O)(=O)c2ccc(C)cc2)CC1)C(=O)NCC1CCCO1 (some centres unmarked), the “hERG current change (%, negative = inhibition) at 10uM” value was -13.2%.
In the case of Cc1ccc(C(=O)OCc2cc(=O)n3c(C)csc3n2)s1, the “hERG current change (%, negative = inhibition) at 10uM” value is reported as -31.7%.
CCNc1nc(NCC)nc(N(C#N)C(C)C)n1 was tested, and the “hERG current change (%, negative = inhibition) at 10uM” value was -3.21%.
For O=C(N/N=C/c1ccc(F)cc1)c1c(O)c2ccccc2[nH]c1=O, the “hERG current change (%, negative = inhibition) at 10uM” value was -6.28%.
For O=C(COC(=O)c1cn(-c2ccccc2)nc1-c1cccs1)NC1CC1, the “hERG current change (%, negative = inhibition) at 10uM” value was 22.1%.
Cc1c(O)c(C)c2c(c1O)C(=O)C[C@@H](c1ccccc1)O2 was tested, and the “hERG current change (%, negative = inhibition) at 10uM” value was 17.7%.
With COCCCN1C(=O)C2C(C(=O)Nc3cccc(Cl)c3)C3C=CC2(O3)C1C(=O)NC1CCCCC1 (centres unmarked) the “hERG current change (%, negative = inhibition) at 10uM” value was -6.47%.
For CN(CC(=O)N(C)CC(=O)Nc1c(Cl)cccc1Cl)Cc1ccc(Br)s1, the “hERG current change (%, negative = inhibition) at 10uM” value was -39.7%.
Cc1cccc2cc(C#N)c(NCCCNS(=O)(=O)c3ccc(Cl)cc3)nc12 was tested, and the “hERG current change (%, negative = inhibition) at 10uM” value was 7.31%.
CCn1c(SCC(=O)Nc2cc(C)c(Cl)cc2OC)nnc1-c1ccco1 was tested, and the “hERG current change (%, negative = inhibition) at 10uM” value was -4.93%.
In the case of CC(=O)c1cn(CCCCCCCn2cc(C(C)=O)c(=O)[nH]c2=O)c(=O)[nH]c1=O, the “hERG current change (%, negative = inhibition) at 10uM” value is reported as 5.91%.
For Cc1cccc(-n2ncc3c(N)ncnc32)c1, the “hERG current change (%, negative = inhibition) at 10uM” value was -5.94%.
With COc1ccc(NC(=O)C(c2ccccc2)c2ccccc2)cn1 the “hERG current change (%, negative = inhibition) at 10uM” value was -0.151%.
In the case of CCCc1nc(SCC(=O)Nc2nnc(CC)s2)c2c(=O)n(C)c(=O)n(C)c2n1, the “hERG current change (%, negative = inhibition) at 10uM” value is reported as 9.61%.
Cc1cccc2sc(N(CCN(C)C)C(=O)C3CCN(S(=O)(=O)c4cccs4)CC3)nc12.Cl was tested, and the “hERG current change (%, negative = inhibition) at 10uM” value was -10.8%.
CCN1CCN(C(=O)/C=C/c2ccc(OC)cc2)CC1 was tested, and the “hERG current change (%, negative = inhibition) at 10uM” value was -19.1%.
Cc1ccc(CNc2oc(-c3ccco3)nc2C#N)cc1 was tested, and the “hERG current change (%, negative = inhibition) at 10uM” value was -5.42%.
For CCCn1c(=O)c(C(=O)NNC(=O)c2ccccc2Cl)c(O)c2ccccc21, the “hERG current change (%, negative = inhibition) at 10uM” value was -5.42%.
With O=S(=O)(Nc1nccs1)c1ccc2c(c1)OCCO2 the “hERG current change (%, negative = inhibition) at 10uM” value was 1.62%.
